This note sets out measurements from PubChem BioAssay (NCATS).

Where “and” joins values, the source holds several entries; their conditions need not be identical. Identical values can stand only once. This is one part of the list. These are further read-outs of the screen, such as a control signal, another cell line or another target. No call is given for them. Most of these compounds were active or inconclusive in the main read-out, so they are no random draw. For some of these results: Words in brackets tell the shape of the fitted curve; partial curves, single points and poor fits give uncertain potencies.

Test [1] in a line: qHTS Assay for Lipid Storage Modulators (AID 1519). The settings on record: Drosophila S3 cells, BODIPY lipid droplet/cell ratio, laser cytometry, cells loaded with oleic acid. In outline:
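Cells seeded at 5,000 per well were treated with compounds over a concentration series and loaded with oleic acid (400 uM, as added). Lipid droplet fluorescence (488 nm excitation, 500-530 nm channel) was read by laser-scanning cytometry and normalized to 20 uM Triacsin C.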
In general terms: In qHTS, concentration-response curves come from the screen itself.

Test [2] can be described thus: qHTS Assay for Modulators of Human Peripheral Myelin Protein 22 (PMP22) Expression/Activity (AID 1967). The settings on record: Cell-based PMP22 reporter, dual-color luciferase ratio. In outline:
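MSC80 mouse Schwann cells stably carrying Pmp22 promoter–green click beetle luciferase plus EF-alpha–red luciferase control were dosed for 24h at 37 °C. Dual-colour luminescence was filter-overlap corrected; %Activity came from green/red ratio versus untreated cells.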

Test [3] is described as follows: qHTS Validation Assay to Find Inhibitors of Chronic Active B-Cell Receptor Signaling (AID 485345). The settings on record: ABC-DLBCL cells, chronic BCR signaling reporter. The gist of the method: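 TMD8 ABC-DLBCL cells with dox-inducible green luciferase–IκBα fusion and red native luciferase; compounds 46 uM–3 nM, 4 h at 37C with doxycycline in 0.5% FBS IMDM. Green/red ratio normalized to basal and 10 uM MG-132.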

Test [4] in a line: qHTS assay for small molecule antagonists of androgen receptor signaling (AID 588516). As to conditions: AR-UAS-bla HEK293, beta-lactamase ratio, antagonist mode, 16 h. The gist of the method: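 Antagonist-mode qHTS: inhibition of R1881 (10 nM)-driven beta-lactamase expression in GripTite HEK 293 cells is measured after 16 h; values are Hill-derived IC50s normalized between R1881 and DMSO wells.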

A short description of test [5]: qHTS assay for small molecule antagonists of glucocorticoid receptor signaling (AID 588533).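 Further: cells stimulated with 2 nM dexamethasone as agonist.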 The settings on record: HeLa MMTV-bla, GRE beta-lactamase ratio, antagonist mode, 18 h; measured here: W530 channel AC50.
Test [6] is described as follows: qHTS assay for small molecule antagonists of peroxisome proliferator-activated receptor delta signaling (AID 588535).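 Further: cells co-treated with a PPAR-delta agonist as stimulator during compound exposure.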 As to conditions: HEK293T PPARd-UAS-bla, beta-lactamase FRET ratio, 18 h; 460 nm channel. In outline:
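Inhibition of PPAR-delta response element-driven beta-lactamase expression is measured in HEK293T cells exposed to a compound titration series for 18 hrs at 37 C. Half-maximal inhibition comes from Hill equation fitting.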

The nature of test [7]: qHTS assay for small molecule antagonists of vitamin D receptor signaling (AID 588541). As to conditions: HEK293T VDR-UAS-bla, beta-lactamase ratio, antagonist mode; measured here: W460 blue channel (cell viability).
A short description of test [8]: qHTS assay for small molecule agonists of retinoid X receptor alpha signaling (AID 588544). The settings on record: HEK293T RXRa-UAS-bla, beta-lactamase reporter, 18 h; 530 nm emission.
Test [9] can be described thus: qHTS assay for small molecule antagonists of retinoid X receptor alpha signaling (AID 588546).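 Further: cells stimulated with 9-cis-retinoic acid as agonist; on the % scale 0 is the no-effect control and ±100 the full control effect.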 The settings on record: HEK293T RXRa-UAS-bla, beta-lactamase ratio, antagonist mode; measured here: W530 green channel, cytotoxicity proxy. The gist of the method: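 Beta-lactamase reporter inhibition, read as CCF4 fluorescence ratio (ex 405, em 460/530 nm) after 2 h at RT. HEK293T UAS-bla cells, 2500/well, were stimulated with 9-cis-RA at 500 or 100 nM final alongside test compound for 18 h at 37 C.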

Test [10] can be described thus: qHTS Assay for Inhibitors of PDE-IV (AID 607).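 Further: parental cells stimulated with forskolin 10 µM plus RO 20-1724 100 µM.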 As to conditions: HEK293 ACTOne CNG channel cells, membrane potential fluorescence; measured here: parental cell counter-screen. In outline: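 The readout is membrane depolarisation from a cAMP-sensing CNG channel, detected with a potential dye at ex 535/em 590. Cells were HEK293-derived (endogenous PDE-IV) at 1000 cells/well, titrated up to 22.9 uM final.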

The nature of test [11]: Nrf2 qHTS screen for inhibitors: Validation (AID 493153). As to conditions: A549 ARE-Fluc reporter, 18-24 h; AC50: CellTiter-Fluor fluorescence read, measured here: cytotoxicity CellTiter-Fluor AC50; viability change: measured here: cytotoxicity max response. The gist of the method:
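A549 ARE_Fluc, 5% FBS OPTI-MEM; cpd titration, 18-24 h, 37°C/5% CO2. Read 1: CellTiter-Fluor (Ex 405/Em 525), cytotox. Read 2: luciferase lum, Nrf2 activity.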

Test [12] in a line: S16 Schwann cell PMP22 intronic element beta-lactamase assay (AID 624044). Further: nearly all actives have a fitted effect of over 15% in size. As to conditions: S16 rat Schwann cells, PMP22 element beta-lactamase FRET, 24 h; measured here: 460 nm blue channel. The gist of the method: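 Beta-lactamase reporter under a PMP22 intronic regulatory element in stable S16 rat Schwann cells; 24 h compound exposure. 460 nm blue signal normalized between DMSO (0%) and potassium clavulanate, with 535 nm FRET tracking viability; curves classed by r2 and response.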

[13] abbreviates: measured here: cell count channel max response.
[14] abbreviates: measured here: cell number channel AC50.
Where [15] appears, read: measured here: lipid (BODIPY) channel AC50.
Where [16] appears, read: measured here: lipid channel max response.
Where [17] appears, read: measured here: green reporter channel AC50, mouse Pmp22 promoter in mouse Schwann cells.
The mark [18] stands for this setting: measured here: red reporter channel AC50, EF-alpha promoter control reporter in MSC80 mouse Schwann cells.
Setting [19] is: measured here: CBG/CBR ratio read-out.
The mark [20] stands for this setting: measured here: CBR control luciferase (viability counter).

For orientation: AC50 means the midpoint of the concentration-response curve, whichever way the signal moves.
Tags describe the fitted curve by direction and shape.

On to `CC(C)(C)c1ccc(S(=O)(=O)/C=C/C#N)cc1`, for which the max response in test [1] (setting [13]) is -80.5%; in [1] (setting [16]), -111%. The AC50 in test [1] (setting [14]) is 14.1 µM [falling, full curve, poor fit]; in [1] (setting [15]) it was 14.1 µM [falling, full curve, poor fit]; in test [2] (setting [17]) it was 7.57 µM [falling, full curve]; in [2] (setting [18]) it was 8.49 µM [falling, full curve]; in [3] (setting [19]), 3.66 µM [falling, single point]; in test [3] (setting [20]), 7.31 µM [falling, partial curve].

On to `O=c1cc(-c2ccccc2)oc2cc(O)cc(O)c12`, for which the max response is 111% in [1] (setting [13]); 126% in [1] (setting [16]); 36.7% in test [6]; 76.8% in test [8]; 37.6% in [9]. The AC50 in [1] (setting [14]) was 35.5 µM [rising, partial curve]; in test [1] (setting [15]) it was 31.6 µM [rising, partial curve, poor fit]; in test [4] (measured here: W460 blue channel fit), 8.91 µM [rising, full curve, poor fit]; in [4] (measured here: W530 green channel, cytotoxicity/artifact), 15.8 µM [rising, full curve, poor fit]; in test [5], 12.6 µM [falling, full curve, poor fit]; in test [7], 7.94 µM [rising, partial curve, poor fit].

Consider `O=c1onc2cnc3ccccc3n12`, for which the max response turned out to be 87.2% in [1] (setting [13]) and 82.4% in [1] (setting [16]). For the same compound, the AC50 is 14.1 µM [rising, partial curve] in test [1] (setting [14]); 3.98 µM [rising, partial curve] in test [1] (setting [15]); 23.1 µM [falling, single point] in test [3] (setting [19]); 16.4 µM [falling, single point] in test [3] (setting [20]).

Turning to `CN(C)c1nc2c(Br)c(Br)c(Br)c(Br)c2[nH]1`, the figures for the max response in [1] (setting [13]) and in test [1] (setting [16]) were 50.3% and 51.9%, respectively. In addition, the AC50 was 35.5 µM [rising, partial curve, poor fit] in test [1] (setting [14]); 31.6 µM [rising, partial curve, poor fit] in test [1] (setting [15]); 67.5 µM [falling, partial curve, poor fit] in test [2] (setting [17]); 42.6 µM [falling, partial curve] in [2] (setting [18]); 8.2 µM [falling, partial curve] in test [3] (setting [20]).

Consider `FC(F)(F)c1cc(CO[C@H]2CCCN[C@H]2c2ccccc2)cc(C(F)(F)F)c1`, for which the AC50 in [10] is 6.31 µM [rising, partial curve]; in [1] (setting [14]), 39.8 µM [rising, partial curve, poor fit]; in [1] (setting [15]), 39.8 µM [rising, partial curve, poor fit]; in test [2] (setting [17]), 26.9 µM [falling, full curve]; in test [2] (setting [18]) it was 26.9 µM [falling, full curve]. Moreover, the max response in [1] (setting [13]) is 62.8% and 60.8%; in test [1] (setting [16]), 75% and 61%.

Consider `CN(C(=O)CCCOc1ccc2[nH]c(=O)ccc2c1)C1CCCCC1`, for which the max response in [1] (setting [13]) is 67% and 39.6%; in [1] (setting [16]), 90.5% and 30.8%. The AC50 in [1] (setting [14]) is 14.1 µM [rising, partial curve, poor fit] and 22.4 µM [falling, single point]; in [1] (setting [15]), 15.8 µM [rising, partial curve, poor fit]; in test [2] (setting [18]), 75.7 µM [falling, partial curve]. For the same compound, the viability change in [11] was -0.395%.

As to `CC1=C(/C=C/C(C)=C/C=C/C(C)=C/C(=O)O)C(C)(C)CCC1`, the max response in test [1] (setting [13]) was 22.2% and 33%; in [1] (setting [16]), 40.1% and 41.2%. Besides, the AC50 in [1] (setting [14]) was 17.8 µM [rising, full curve, poor fit]; in test [1] (setting [15]), 35.5 µM [rising, single point] and 15.8 µM [rising, full curve, poor fit]; in [2] (setting [17]), 9.53 µM [falling, partial curve, poor fit]; in test [3] (setting [19]) it was 2.31 µM [falling, full curve]; in test [3] (setting [20]), 1.84 µM [falling, full curve]; in [12], 0.178 µM [falling, full curve, poor fit].

`O=[N+]([O-])c1ccc(-c2nc(-c3ccc(F)cc3)c(-c3ccncc3)[nH]2)cc1`: the results for the max response in test [1] (setting [13]) and in test [1] (setting [16]) were -81.3% and -87.7%, respectively. In addition, the concentration at half-maximal activity (AC50) in test [1] (setting [14]) was 28.2 µM [falling, partial curve, poor fit]; in [1] (setting [15]), 31.6 µM [falling, partial curve, poor fit]; in test [2] (setting [17]), 47.8 µM [falling, partial curve]; in test [2] (setting [18]), 60.1 µM [falling, partial curve, poor fit]; in test [3] (setting [20]), 9.2 µM [falling, partial curve].

For the compound `CN1CCN(c2nc3cc(C(F)(F)F)ccc3n3cccc23)CC1`, the max response in test [1] (setting [13]) stood at 104%; in test [1] (setting [16]), 130%. The AC50 was 35.5 µM [rising, partial curve] in test [1] (setting [14]); 31.6 µM [rising, partial curve] in [1] (setting [15]); 67.5 µM [falling, partial curve] in [2] (setting [17]); 84.9 µM [falling, partial curve] in [2] (setting [18]); 20.6 µM [falling, single point] in [3] (setting [19]).

As for `NCCCNCCCCNCCCN`, the results for the max response in test [1] (setting [13]) and in test [1] (setting [16]) were -13.9% and -15.2%, respectively. The AC50 was 1.58 µM [falling, full curve, poor fit] in test [1] (setting [14]); 1.41 µM [falling, full curve, poor fit] in test [1] (setting [15]); 60.1 µM [falling, partial curve] in [2] (setting [17]); 67.5 µM [falling, partial curve] in test [2] (setting [18]).
